B1: chr6:49492913:49492980:+|3pUTR|ENSG00000031691|msi1_unk|FALSE|overlapping (ssRNA)
RNA: GGGAGUUCUACAGUCCGACGAUCUGUUGAAUAUUUUCUACUGUCAUCAAAACAUAUUCCCAAAAAGUAUUAAAAAGGAACCUUAGCACAUUUAUUUUAUUAAAACAAGAAAACCCAAAAUAUAUAAACCUUUUCUUAUUAUGACAACAGAGGAUUGAGCAUCA
B2: chr6:121448137:121448244:+|3pUTR|ENSG00000152661|msi1|total|mutant (ssRNA)
RNA: GGGAGUUCUACAGUCCGACGAUCAUGAGGCUCCGAAAACACAAAGACAUCCGAAUACCCCGGUUCACUGGGGGUGUAUGGGGCCGAUGGGUGGAGAGGGAGGGGAUAAGAGAGGUGCAUGUUGGUAUUUAAAGCCGUGGAUUCCAACAGAGGAUUGAGCAUCA
B3: chr9:114598126:114598323:+|3pUTR|ENSG00000136888|msi1|total|mutant (ssRNA)
RNA: GGGAGUUCUACAGUCCGACGAUCUCUUUGUAACCUGUGUGAAGCAGCAGCCAGCCUUAAAGCCGUCCAUUCUUGCUAAUGGUCCGAACAGUGAAUACCCGUGGAAUUGUUUGGGCUGCUUUCCGUUUCUCUUAAUCAAAAUUACAACAGAGGAUUGAGCAUCA
B4: chr4:125449804:125449905:+|CDS|ENSG00000196159|msi1|total|mutant (ssRNA)
RNA: GGGAGUUCUACAGUCCGACGAUCAAACAGAUCUUAAAAUACCAAAAUGUCACUGGCUUCAGUAAUGUGAAUAUCAACAGGCACCGUUUUACCGUGACAUCUUCAGAUCGAGGUAAACCUUCCUUAAUCCGUGAGACAACAGUUCAACAGAGGAUUGAGCAUCA
B5: chr5:52955293:52955406:+|3pUTR|ENSG00000213949|unk|total|mutant (ssRNA)
RNA: GGGAGUUCUACAGUCCGACGAUCUACCAACCAGUGUGAGCUGACUUCAGCACACCACUGAGACAGAUUACACGACCGACAGACCGACCGACCGACCGACCGACCGACCGACCGACCGACCGACCGAUAUUGACCGAGAACAUGCAACAGAGGAUUGAGCAUCA
B6: chr2:135782819:135782876:+|CDS|ENSG00000144224|msi1_unk|FALSE|overlapping (ssRNA)
RNA: GGGAGUUCUACAGUCCGACGAUCGUGAGAAAAAGAGUGCUGGAAAAACGUGGAGACGACUUUAAAAAGGAGGGGAAAAUUUAUAGAUUAAGGACUCAAGAUGAUGGUGAAGAUGAAAACAACACUUGGAAUGGAAAUUCCACUCAACAGAGGAUUGAGCAUCA
B7: ENSG00000124766:be:win_1451|3pUTR|ENSG00000124766|bound_else_gene|NA|bound_elsewhere_windowed (ssRNA)
RNA: GGGAGUUCUACAGUCCGACGAUCCGGGGGGGGUAGGAGAGGAGAAAAAAAAAGUGAAAAAAAGAAACGAAAAGGACAGACGAAGAGUUUAAAGAGAAAAGGGAAAAAAGAAAGAAAAAGUAAGCAGGGCUGGCUUCGCCCGCGCAACAGAGGAUUGAGCAUCA
B8: chr4:56994692:56994796:+|CDS|ENSG00000047315|unk|FALSE|unique (ssRNA)
RNA: GGGAGUUCUACAGUCCGACGAUCAAAAACAGUCAUUAAAGAAGGUGAAGAACAACUUCAGACUCAGCAUCAGAAAACUUUUAUAGGAAAAAUUCCAAUUAUGUUGCGGUCAACUUACUGCCUUUUGAAUGGCUUGACAGAUCGCAACAGAGGAUUGAGCAUCA
B9: ENSG00000084234:stop:overlap|stop_codon|ENSG00000084234|stop_codon|NA|stop_codon (ssRNA)
RNA: GGGAGUUCUACAGUCCGACGAUCAGAUGCAGAACCAUGGCUAUGAGAACCCCACCUACAAAUACCUGGAGCAGAUGCAGAUUUAGGUGGCAGGGAGCGCGGCAGCCCUGGCGGAGGGAUGCAGGUGGGCCGGAAGAUCCCACGCAACAGAGGAUUGAGCAUCA
B10: chr14:55043969:55044070:+|CDS|ENSG00000180008|unk|FALSE|bound_elsewhere (ssRNA)
RNA: GGGAGUUCUACAGUCCGACGAUCUUUUUACUUCGAGACUCAGCACAGGAAGACUAUUUAUUCUCUGUUAGUUUUAGACGCUAUAGUCGUUCUCUUCAUGCUAGAAUUGAACAGUGGAAUCACAACUUUAGCUUUGAUGCACAUCAACAGAGGAUUGAGCAUCA
B11: chr10:72062367:72062468:-|3pUTR|ENSG00000107742|unk|FALSE|unique (ssRNA)
RNA: GGGAGUUCUACAGUCCGACGAUCCCUUGAUCCACACUGCUCCUGGCAGAGUGAGUCACCCAAAGGCCCCUUCGGCCUCCUUGUAGCUGUUUUCUUUCCUUUUGUUGUUGGUUUUAAAAUACAUUCACACACAAAUACAAAUUGCAACAGAGGAUUGAGCAUCA
B12: chr17:35924603:35924772:-|CDS|ENSG00000278023|control|control|control (ssRNA)
RNA: GGGAGUUCUACAGUCCGACGAUCGGAAAAUGAAGAUAGCAUGGUGCCACUUCCGAAGCAAAGCCUGAAGUUCUUCUGUGCUUUAGAAGUGGUGUUGCCAUCCUGUGAUUGCAGGAGUCCUGGCAUUGGCUUGGUGGAGGAGCCCAACAGAGGAUUGAGCAUCA
B13: chr5:148417036:148417137:+|CDS|ENSG00000145868|unk|total|mutant (ssRNA)
RNA: GGGAGUUCUACAGUCCGACGAUCGGUUGUGCUCGAGUUGGUCUGAGUGCAGGCACAGGAAUUGGUGUUUCAUCAGCUCUUGUCCGCAACCAGAACUCCAACAAUGACGAUAAUAAUGCCCAGAAUAACAAUGCCAACAUCCACCAACAGAGGAUUGAGCAUCA
B14: chr10:62806226:62806343:+|3pUTR|ENSG00000181915|unk|FALSE|unique (ssRNA)
RNA: GGGAGUUCUACAGUCCGACGAUCCUACCCCUUAGUUAAAUAGGGUUUAUUUUCCACUCAUGCCCUUAUGCCUUUUUUUCUUAUAGUUUUUUAACUUAUUGACUGUGCAUGACCCAGUGGUUUGAAUUGUUUUUAGUUCAAGUCCAACAGAGGAUUGAGCAUCA

The list shows a part of the results.

For the test, the target named is MSI1 full-length (mouse, UniProt Q61474 1-362). As to the kind of experiment: nsRBNS (natural sequence RNA bind-n-seq); RBNS binding buffer (assumed for nsRBNS): 25 mM Tris pH 7.5, 150 mM KCl, 3 mM MgCl2, 0.01% Triton X-100, 500 ug/ml BSA, 20 U/ml SUPERase-In, 4 C; UNK is unkempt and MSI1 is Musashi-1; names of the RNAs are library labels; protein concentration not given here; high values mean tight binding.
Chain of UniProt Q61474 (Q61474 whole entry): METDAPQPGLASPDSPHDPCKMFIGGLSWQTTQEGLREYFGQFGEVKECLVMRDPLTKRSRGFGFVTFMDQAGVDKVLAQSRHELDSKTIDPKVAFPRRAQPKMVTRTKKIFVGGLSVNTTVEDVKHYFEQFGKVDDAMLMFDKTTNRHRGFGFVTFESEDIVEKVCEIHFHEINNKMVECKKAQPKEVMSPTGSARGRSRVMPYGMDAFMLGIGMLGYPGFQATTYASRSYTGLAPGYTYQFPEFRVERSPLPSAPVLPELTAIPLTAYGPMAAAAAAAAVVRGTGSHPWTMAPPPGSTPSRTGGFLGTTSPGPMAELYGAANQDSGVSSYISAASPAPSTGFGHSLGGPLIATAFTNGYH
B1 returned a binding signal of 4.32 enrichment R. B2: the binding signal is 0.949 enrichment R.

B3 came in with a binding signal of 0.47 enrichment R.

Regarding B4, the binding signal was found to be 0.198 enrichment R. The figure for B5 is 0.369 enrichment R; for B6 it is 0.82 enrichment R; for B7 it is 1.11 enrichment R. Turning to B8, the binding signal was determined as 0.453 enrichment R. The figure for B9 is 0.678 enrichment R. The value for B10 was 8.13 enrichment R; that for B11 was 0.528 enrichment R; that for B12 was 0.574 enrichment R. For the molecule B13, the binding signal came to 0.295 enrichment R.

As to B14, the binding signal amounted to 10.9 enrichment R.
